Over roughly 33,000 sequences, “E-score (-0.5 to 0.5)” has its median near -0.056; the highest 2% begin near 0.38. The list shows a part of the results.

The target of this assay is Stb4 (UniProt P50104). The assay is described as follows: PBM E-score (8-mer binding enrichment) (E-score (-0.5 to 0.5)); higher = stronger / more preferred TF binding; most listed sequences are background and not binding sites. The conditions noted are these: protein concentration: 200 nM; construct: GST-DNA-binding domain. In a few lines: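 E-scores (a modified Wilcoxon-Mann-Whitney statistic) were assigned by the Universal PBM Analysis Suite to every ungapped eight-base word pooled with its reverse complement. The input came from universal all-10-mer Agilent arrays made double-stranded by primer extension and probed with GST-tagged yeast transcription factors at about 100-200 nM. Fluorescent anti-GST detected bound protein, and masliner normalised the scans.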
On to CACGTTTA, for which the “PBM E-score” value is -0.132.
On to CTCACCTA, for which the “PBM E-score” value was -0.169.
The value for TACTCCTA was -0.336; that for GTGAACCA was -0.124.
For the sequence GGTGTGCA, the “PBM E-score” value was -0.205.
ACCTCGAT: the “PBM E-score” value was -0.0822.
With AAGACAGG, the “PBM E-score” value is -0.165.
The result for CTTTATGA reads -0.343.
As to GAGAGTCC, the “PBM E-score” value was -0.139.
Turning to AAAAGCGG, the “PBM E-score” value worked out at 0.0741.
As to CCGCGAAG, the “PBM E-score” value is 0.175.
With AATTGTAG, the “PBM E-score” value was 0.00679.
The value for CGACGCCA was -0.0172; that for AGTGTCCA was -0.175.
On to GACAGTTA, for which the “PBM E-score” value was -0.0347.
Regarding AGATCACG, the “PBM E-score” value was -0.119.
For AGAACTGC, the “PBM E-score” value was -0.241.
Turning to TCCGCGAA, the “PBM E-score” value was found to be 0.255.
The value for TCACTAAA was -0.239.
The value for AGCACAGG was -0.138; that for CGACTAAA was -0.0989.
The value for ATCACGAA was -0.225; that for AAATAAAG was -0.128.
For GGCTACGA, the “PBM E-score” value was 0.0376.
With ACGCAGTC, the “PBM E-score” value was -0.357.
The value for AGGACCCA was -0.162; that for AATTGGAC was 0.0728; that for CCATGCGC was -0.0476.
Consider AATGTACA, for which the “PBM E-score” value was -0.011.
The value for CCTAGTAA was -0.107; that for CATCATCC was 0.101.
With GGTGCACC, the “PBM E-score” value was 0.0558.
The result for CAGAATCA reads -0.184.
The value for AACTATAG was -0.0647; that for CTCGACCA was -0.276.
The value for AAACGGAT was 0.338; that for GCACTTAA was 0.0926; that for GCCGAATA was 0.427.
As for ACCTGACT, the “PBM E-score” value was 0.00577.
Regarding CCGTCTAC, the “PBM E-score” value stood at 0.101.
With CTTTCAAA, the “PBM E-score” value turned out to be 0.0627.
On to ATTGCTCG, for which the “PBM E-score” value turned out to be 0.189.
The value for CCGAGGCA was 0.396; that for CACGCCTC was -0.194.
The result for ATTGGTGG reads -0.101.
On to ACGTACAT, for which the “PBM E-score” value is 0.00122.
On to GTCATAGA, for which the “PBM E-score” value is -0.0716.
The result for CCGTGAAG reads 0.0142.
The value for GTTCTTAA was 0.0144; that for CTTTCTGC was 0.0267; that for CTTAATCC was 0.256.
The result for CATCGGTA reads 0.345.
Consider GGGGTGAA, for which the “PBM E-score” value was -0.124.
On to GCAGTCCC, for which the “PBM E-score” value was -0.024.
The value for CGGACAGC was 0.146; that for CCGAGAGA was 0.373; that for AACTCATA was 0.148.
The result for AGTTATAT reads -0.0217; that for ACGCGCGA, -0.0833; that for GTACGAAA, -0.152.
GAACTATA: the “PBM E-score” value was 0.0846.
In the case of ACTCTAGG, the “PBM E-score” value is -0.212.
On to ACTCACCT, for which the “PBM E-score” value was -0.281.
Take AAAGAGCA: the “PBM E-score” value is -0.0662.
GTTACCAA: the “PBM E-score” value was -0.0844.
As for ACAGAGTC, the “PBM E-score” value was -0.0818.
The result for GAGTTTCC reads 0.204; that for GTTGCTCA, -0.212.
The value for CGGGACAG was 0.274; that for AGCGCCAA was -0.178.
The value for AAAAACCT was 0.0896; that for CTGCCCGA was 0.227; that for AGTATTAG was -0.00647.
For the sequence AAATCGGC, the “PBM E-score” value came to 0.313.
As to AGCAACCA, the “PBM E-score” value is -0.153.
The result for CGGTGACC reads -0.0113; that for AGGGCCTG, -0.275.
GAACATTA: the “PBM E-score” value came to 0.0192.
The value for ATTGCCTG was -0.206; that for AACTGATG was -0.171.
The value for CACGGATG was 0.338; that for CCATCACA was -0.197.
Take AAGCGCCC: the “PBM E-score” value came to 0.101.
AAAGGGTA: the “PBM E-score” value is -0.033.
For CGAGTCTA, the “PBM E-score” value was -0.0263.
The result for TCAAATCA reads -0.36.

Values taken from the supplement of paper PMC3334620.
